Assay results from PMC6054203.
No constants are given. Whether binding was seen depends on the method and setting. Tags and fused reporters may be left off the sequences shown.

Legend:
Test in all cases: two-hybrid; yeast strain AH109 co-transformed with AD (pGAD.GH) and BD (pGBT9.BS) fusions; growth on SC-LWH and on SC-LWH with 0.5 and 3.0 mM 3-AT
[1] = biological target: T1, CIPK25, two-hybrid fusion (Arabidopsis) (UniProt Q8W1D5)
T1 sequence: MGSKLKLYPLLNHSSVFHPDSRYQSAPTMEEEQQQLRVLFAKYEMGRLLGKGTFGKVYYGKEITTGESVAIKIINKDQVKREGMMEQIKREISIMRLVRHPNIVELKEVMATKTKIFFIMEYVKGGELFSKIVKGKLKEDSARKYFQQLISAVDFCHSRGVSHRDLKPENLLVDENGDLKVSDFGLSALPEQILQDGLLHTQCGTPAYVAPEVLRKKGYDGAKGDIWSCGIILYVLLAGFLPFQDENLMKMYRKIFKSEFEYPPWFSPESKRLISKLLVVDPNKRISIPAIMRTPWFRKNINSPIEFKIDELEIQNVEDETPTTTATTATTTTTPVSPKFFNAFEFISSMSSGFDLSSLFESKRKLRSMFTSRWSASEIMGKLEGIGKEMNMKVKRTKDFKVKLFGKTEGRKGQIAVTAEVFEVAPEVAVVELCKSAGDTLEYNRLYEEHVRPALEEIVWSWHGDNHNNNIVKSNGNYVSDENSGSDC

[2] = biological target: T2, CIPK8, two-hybrid fusion (Arabidopsis) (UniProt Q9STV4)
T2 sequence: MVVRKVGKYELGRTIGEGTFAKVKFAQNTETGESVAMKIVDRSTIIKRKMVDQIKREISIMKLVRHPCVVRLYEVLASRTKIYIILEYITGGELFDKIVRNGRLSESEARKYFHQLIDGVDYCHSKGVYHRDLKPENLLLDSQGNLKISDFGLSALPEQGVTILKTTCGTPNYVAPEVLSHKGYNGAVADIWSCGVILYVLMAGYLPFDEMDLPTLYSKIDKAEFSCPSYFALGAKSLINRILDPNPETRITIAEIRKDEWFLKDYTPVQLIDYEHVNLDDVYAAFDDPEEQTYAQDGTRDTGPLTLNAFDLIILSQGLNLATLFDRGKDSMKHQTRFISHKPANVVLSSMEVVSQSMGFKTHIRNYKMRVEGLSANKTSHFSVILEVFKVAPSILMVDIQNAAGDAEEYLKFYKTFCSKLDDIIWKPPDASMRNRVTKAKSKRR

[3] = biological target: T3, CIPK1, two-hybrid fusion (Arabidopsis) (UniProt Q8RWC9)
T3 sequence: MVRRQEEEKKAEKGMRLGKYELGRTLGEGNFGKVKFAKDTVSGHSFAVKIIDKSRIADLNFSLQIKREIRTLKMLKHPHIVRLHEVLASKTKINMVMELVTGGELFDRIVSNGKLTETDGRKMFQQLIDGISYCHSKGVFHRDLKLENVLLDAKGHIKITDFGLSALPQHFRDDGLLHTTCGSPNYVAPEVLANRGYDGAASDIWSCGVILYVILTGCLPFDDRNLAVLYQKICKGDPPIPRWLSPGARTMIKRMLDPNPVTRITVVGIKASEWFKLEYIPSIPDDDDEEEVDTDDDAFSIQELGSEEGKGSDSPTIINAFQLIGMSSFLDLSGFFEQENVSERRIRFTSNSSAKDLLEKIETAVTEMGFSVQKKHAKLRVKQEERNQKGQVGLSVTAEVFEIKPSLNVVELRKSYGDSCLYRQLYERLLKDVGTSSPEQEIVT

[4] = biological target: T4, CIPK11, two-hybrid fusion (Arabidopsis) (UniProt O22932)
T4 sequence: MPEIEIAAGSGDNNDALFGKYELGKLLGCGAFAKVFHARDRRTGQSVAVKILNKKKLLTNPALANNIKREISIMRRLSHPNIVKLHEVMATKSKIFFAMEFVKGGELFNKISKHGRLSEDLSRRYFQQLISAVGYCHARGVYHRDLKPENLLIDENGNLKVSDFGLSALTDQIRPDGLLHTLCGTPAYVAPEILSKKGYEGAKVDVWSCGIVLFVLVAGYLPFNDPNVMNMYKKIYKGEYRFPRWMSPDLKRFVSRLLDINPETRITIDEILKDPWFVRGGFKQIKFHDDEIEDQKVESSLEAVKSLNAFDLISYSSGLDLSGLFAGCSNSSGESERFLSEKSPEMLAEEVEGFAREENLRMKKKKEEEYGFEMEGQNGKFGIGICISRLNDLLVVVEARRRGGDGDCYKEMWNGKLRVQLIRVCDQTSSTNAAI

[5] = biological target: T5, CIPK7, two-hybrid fusion (Arabidopsis) (UniProt Q9XIW0)
T5 sequence: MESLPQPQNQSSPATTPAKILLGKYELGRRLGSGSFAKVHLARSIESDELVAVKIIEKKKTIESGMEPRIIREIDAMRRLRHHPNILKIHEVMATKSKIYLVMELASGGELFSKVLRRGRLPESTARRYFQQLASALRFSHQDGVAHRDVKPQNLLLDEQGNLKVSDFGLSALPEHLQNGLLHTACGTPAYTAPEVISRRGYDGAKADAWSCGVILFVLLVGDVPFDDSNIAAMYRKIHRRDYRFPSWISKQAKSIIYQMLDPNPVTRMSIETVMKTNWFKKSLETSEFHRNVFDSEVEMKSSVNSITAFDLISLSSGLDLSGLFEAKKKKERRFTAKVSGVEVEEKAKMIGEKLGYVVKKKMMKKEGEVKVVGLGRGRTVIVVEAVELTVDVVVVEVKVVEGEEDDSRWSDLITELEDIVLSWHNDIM

Measured: binding

B1: AP2C1 (protein phosphatase 2C), two-hybrid fusion (enzyme, UniProt O80871 1-396)
chain: MSCSVAVCNSPVFSPSSSLFCNKSSILSSPQESLSLTLSHRKPQTSSPSSPSTTVSSPKSPFRLRFQKPPSGFAPGPLSFGSESVSASSPPGGVLKRKRPTRLDIPIGVAGFVAPISSSAAVAATPREECREVEREGDGYSVYCKRGRREAMEDRFSAITNLHGDRKQAIFGVYDGHGGVKAAEFAAKNLDKNIVEEVVGKRDESEIAEAVKHGYLATDASFLKEEDVKGGSCCVTALVNEGNLVVSNAGDCRAVMSVGGVAKALSSDHRPSRDDERKRIETTGGYVDTFHGVWRIQGSLAVSRGIGDAQLKKWVIAEPETKISRIEHDHEFLILASDGLWDKVSNQEAVDIARPLCLGTEKPLLLAACKKLVDLSASRGSSDDISVMLIPLRQFI
no binding: all assays above
